Reference: patent publication US20220025069A1 (Hoffmann-La Roche, published 2022)

Columns and labels:
[1] = target: T1, human 4-1BB (CD137), cell-surface-expressed on Jurkat-hu4-1BB-NFkB-luc2 reporter cell line (human, UniProt Q07011 24-186); experiment: cell-based or functional assay; set-up: unit not given beside the values
[2] = target: T1, human 4-1BB (CD137), …; experiment: flow cytometry, Jurkat-hu4-1BB-NFkB-luc2 cells, gMFI curve
[3] = target: T1, human 4-1BB (CD137), …; experiment: as above; remark: listed apart in the source
[4] = target: T1, human 4-1BB (CD137), …; experiment: cell-based or functional assay; set-up: AUC of activation curve, NFκB-luciferase in Jurkat-hu4-1BB-NFκB-luc2, crosslinking by WM-266-4 cells: unit not given beside the values
[5] = target: T1, human 4-1BB (CD137), …; experiment: flow cytometry, Jurkat-hu4-1BB-NFkB-luc2 cells, PE anti-human Fc detection
[6] = target: T2, human Fibroblast Activation Protein (FAP), cell-surface-expressed on NIH/3T3-huFAP clone 19 cells (human, UniProt Q12884 1-760); experiment: flow cytometry, NIH/3T3-huFAP clone 19 cells, gMFI curve
T2 construct: also called FAP-expressing cells

T1 sequence (Q07011 24-186): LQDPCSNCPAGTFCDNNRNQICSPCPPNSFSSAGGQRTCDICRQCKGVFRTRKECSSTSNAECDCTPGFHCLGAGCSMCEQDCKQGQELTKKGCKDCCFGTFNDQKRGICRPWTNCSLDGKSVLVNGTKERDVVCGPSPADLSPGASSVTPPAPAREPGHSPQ

AUC of activation curve, NFκB-luciferase in Jurkat-hu4-1BB-NFκB-luc2, crosslinking by KPL4 cells [1]: 78
AUC of activation curve, NFκB-luciferase in Jurkat-hu4-1BB-NFκB-luc2, crosslinking by NCI-N87 cells [1]: 394
AUC of activation curve, NFκB-luciferase in Jurkat-hu4-1BB-NFκB-luc2, crosslinking by SK-Br3 cells [1]: 101
Area under the curve (AUC) of binding curve [2]: 1880
Area under the curve (AUC) of binding curve [3]: 774
AUC of activation curve, NFκB-luciferase in Jurkat-hu4-1BB-NFκB-luc2, crosslinking by NIH/3T3-huFAP clone 19 cells [4]: 1370
AUC of activation curve, NFκB-luciferase in Jurkat-hu4-1BB-NFκB-luc2, crosslinking by WM-266-4 cells [4]: 355
EC50 [5]: 0.92 nM
Area under the curve (AUC) of binding curve [6]: 579
B1: untargeted 2+2 DP47 x 4-1BB lipocalin huIgG4 SP control molecule (bispecific antibody)
heavy: [about 100 residues not listed]GSGFDYWGQGTLVTVSSASTKGPSVFPLAPCSRSTSESTAALGCLVKDYFPEPVTVSWNSGALTSGVHTFPAVLQSSGLYSLSSVVTVPSSSLGTKTYTCNVDHKPSNTKVDKRV[human IgG4 Fc with S228P F234A L235A (EU numbers) not listed]GGGGSGGGGSGGGGSQDSTSDLIPAPPLSKVPLQQNFQDNQFHGKWYVVGQAGNIRLREDKDPIKMMATIYELKEDKSYDVTMVKFDDKKCMYDIWTFVPGSQPGEFTLGKIKSFPGHTSSLVRVVSTNYNQHAMVFFKFVFQNREEFYITLYGRTKELTSELKENFIRFSKSLGLPENHIVFPVPIDQCIDG
light: [about 100 residues not listed][about 100 residues not listed]
notes: Untargeted control; also called DP47 x 4-1BB lipocalin huIgG4 SP 2+2

Like-named read-outs stand apart in the source and are kept apart here.
